Laboratory results taken from PubChem BioAssay AID1460 (National Center for Advancing Translational Sciences (NCATS), 2008).
Hit rate of the full screen: of about 270,000 compounds, about 5,800 (2.1%) were called active. The shares of active, inactive and inconclusive entries below differ from those in the screen. Calls follow the shape of the dose curve; as a rule, active = well fitted inhibition curve with a large enough effect; inconclusive = small, poorly fitted or top-dose-only effect; inactive = flat fitted curve, though single readings scatter. Potencies beside an inconclusive call are fits to weak or partial responses and may not hold up.

Biological target: Microtubule-associated protein tau (Homo sapiens) (UniProt P10636)
UniProt P10636, sequence (P10636 whole entry, looked up): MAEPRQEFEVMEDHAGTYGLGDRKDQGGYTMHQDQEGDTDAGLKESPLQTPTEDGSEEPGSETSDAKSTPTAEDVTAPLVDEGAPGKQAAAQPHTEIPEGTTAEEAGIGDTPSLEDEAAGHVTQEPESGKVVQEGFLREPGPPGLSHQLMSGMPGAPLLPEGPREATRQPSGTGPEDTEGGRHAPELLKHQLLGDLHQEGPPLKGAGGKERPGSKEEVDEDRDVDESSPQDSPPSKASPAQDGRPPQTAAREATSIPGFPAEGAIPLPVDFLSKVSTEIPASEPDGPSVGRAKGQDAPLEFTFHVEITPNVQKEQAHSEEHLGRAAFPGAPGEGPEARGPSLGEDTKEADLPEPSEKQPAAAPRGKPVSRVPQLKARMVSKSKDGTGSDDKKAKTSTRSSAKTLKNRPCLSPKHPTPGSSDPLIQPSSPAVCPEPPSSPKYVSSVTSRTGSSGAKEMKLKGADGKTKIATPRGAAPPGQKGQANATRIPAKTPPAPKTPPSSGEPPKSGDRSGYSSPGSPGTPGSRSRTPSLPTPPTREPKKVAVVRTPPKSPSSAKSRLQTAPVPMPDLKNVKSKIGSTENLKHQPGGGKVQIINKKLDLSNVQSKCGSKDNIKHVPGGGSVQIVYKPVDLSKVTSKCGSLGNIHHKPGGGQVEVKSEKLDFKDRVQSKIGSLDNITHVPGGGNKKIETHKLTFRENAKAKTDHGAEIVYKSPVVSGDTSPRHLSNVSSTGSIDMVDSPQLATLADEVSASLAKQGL
Assay: qHTS for Inhibitors of Tau Fibril Formation, Thioflavin T Binding; also: nearly all actives have a fitted effect of over 55% in size
Details: recombinant tau K18 P301L (four-repeat tau fragment), heparin-induced fibrillization, ThT fluorescence; series mostly up to 57.4 µM; activity, negative = inhibition: at the top concentration
In short: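 K18 P301L tau (15 uM + 0.24 uM Alexa 594-tagged), heparin 20 uM, NaOAc pH 7, 6 h 37 C; ThT 30 uM, 1 h RT, ex 450/em 510 nm.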
% is scaled to controls: 0 for no effect and ±100 for the full control effect; potency is read from the fitted curve at half-maximal effect; tags tell the direction and shape of the fitted curve.

Row | Structure (SMILES) | activity, negative = inhibition | Potency
1 | Cc1ccc(S(=O)(=O)NNC(=O)c2ccncc2)cc1 | inactive: -5.3% | –
2 | O=C(Nc1ccc(O)cc1)c1c(O)c2c([nH]c1=O)CCCC2 | – | inconclusive: 1.58 µM [inhibitor, full curve]
3 | CCN(CC)CCn1c(=N)n(CC(O)COc2ccccc2C)c2ccccc21 (stereo not drawn) | inactive: -2.57% | –
4 | Cc1ccc2nc(SCC(=O)Nc3cc(C(F)(F)F)ccc3N3CCOCC3)[nH]c2c1 | inactive: -10.1% | –
5 | CCCOc1ccc(-c2nc(-c3ccc(N)cc3)cs2)cc1 | – | inconclusive: 2.24 µM [inhibitor, full curve]
6 | CC1=C(C(=O)Nc2ccccc2)C(c2ccc(C(=O)O)cc2)n2nc(SCC(=O)c3ccc(C)cc3)nc2N1 (stereo not drawn) | inactive: 7.91% | –
7 | Cc1ccc(/C=C(/C#N)c2nc(CCN3C(=O)c4ccccc4C3=O)cs2)cc1 | – | inconclusive: 11.2 µM [inhibitor, partial curve]
8 | CC(=O)Nc1ccccc1-c1nnc(SCc2ccccc2Cl)[nH]c1=O | inactive: -2.21% | –
9 | CC(C)c1ccc(C2c3c(-c4ccccc4O)n[nH]c3C(=O)N2CCc2ccccc2)cc1 (stereo not drawn) | inactive: -4.23% | –
10 | Cc1ccc(NC(=O)c2cccs2)cc1S(=O)(=O)Nc1cccc(Cl)c1 | – | inconclusive: 39.8 µM [activator, single point]
11 | CC(=O)Oc1ccc(Nc2ccccc2)cc1 | – | inconclusive: 25.1 µM [inhibitor, partial curve, poor fit]
12 | COc1ccc(-c2c(C)nn3c(N4CCC(C(=O)NCCC(C)C)CC4)cc(C)nc23)cc1OC | – | inconclusive: 28.2 µM [inhibitor, partial curve]
13 | CC1=CC(=C2C(=O)c3ccccc3C2=O)C=C(C)N1Cc1ccco1 | – | active: 17.8 µM
14 | COc1ccc(CN2CCN(C(=O)C3CCN(S(=O)(=O)c4cccs4)CC3)CC2)c(OC)c1OC | inactive: -10.7% | –
15 | CCc1nnc(N2C(=N)SCC2=O)s1 | inactive: -14.7% | –
16 | COc1cccc(NC(=O)Cn2c(=O)n(CCCC(=O)NCc3ccc4c(c3)OCO4)c(=O)c3ccccc32)c1 | – | inconclusive: 31.6 µM [activator, single point]
17 | O=C1c2ccccc2NC2(CCCCC2)N1N=C1CCCCC1 | inactive: 2.78% | –
18 | COc1cc(C(=S)N2CCOCC2)ccc1OC(=O)c1cc([N+](=O)[O-])c(C)c([N+](=O)[O-])c1 | – | inconclusive: 17.8 µM [inhibitor, partial curve]
19 | Cc1cc(C)n(-c2nc(SCC(=O)N3CCCC3)c3c4c(sc3n2)CCCC4)n1 | – | inconclusive: 15.8 µM [inhibitor, single point]
20 | Cc1nc(NC(=O)c2cccc(Cl)c2)sc1-c1csc(Nc2cccc(Cl)c2)n1 | – | inconclusive: 15.8 µM [inhibitor, partial curve]
21 | CCC1=NN2C(=N)/C(=C\c3cccn3-c3ccc(C)c(C)c3)C(=O)N=C2S1 | – | inconclusive: 28.2 µM [inhibitor, single point]
22 | O=C(NC(=S)Nc1ccccc1N1CCCC1)c1ccc(-c2cccc([N+](=O)[O-])c2)o1 | – | inconclusive: 22.4 µM [inhibitor, partial curve]

Row | Structure (SMILES) | activity, negative = inhibition | Potency
23 | Cc1ccccc1-c1noc(CSc2nnc(Cc3ccccc3)n2-c2ccc(F)cc2)n1 | – | inconclusive: 10 µM [inhibitor, partial curve]
24 | C=CCN(C(=O)C1=NN(C2CCS(=O)(=O)C2)C(=O)CC1)c1nc(-c2ccc([N+](=O)[O-])cc2)cs1 (stereo not drawn) | – | inconclusive: 6.31 µM [inhibitor, partial curve]
25 | CCOC(=O)N1CCc2c(sc(NCc3ccc(OC)c(Br)c3)c2C(=O)Nc2cc(OC)ccc2OC)C1 | – | active: 14.1 µM
26 | CCn1c(CSCc2ccc(F)cc2)nnc1SCC(=O)N1CCN(c2ccccc2)CC1 | – | inconclusive: 28.2 µM [inhibitor, partial curve]
27 | Cc1cccc(Cl)c1OCCCCn1ccnc1 | inactive: 0.477% | –
28 | N#Cc1cccc(NC(=O)NCCc2c[nH]c3ccccc23)c1 | – | inconclusive: 15.8 µM [inhibitor, partial curve, poor fit]
29 | CC1=C(n2nnc3ccccc32)C(c2ccccc2)C(C#N)=C(N)O1 (stereo not drawn) | – | inconclusive: 44.7 µM [inhibitor, partial curve, poor fit]
30 | COc1ccc(CCNC(=O)C2CCN(c3ccc(N4CCOCC4)nn3)CC2)c(OC)c1 | – | inconclusive: 15.8 µM [inhibitor, partial curve]
31 | CCOc1ccc(S(=O)(=O)NCCC(=O)N2CCN(c3ccc(OC)cc3)CC2)cc1 | – | inconclusive: 12.6 µM [inhibitor, partial curve]
32 | COc1cc(/C=N/NC(=O)Nc2cccc3nsnc23)cc(OC)c1OC | – | inconclusive: 0.447 µM [inhibitor, full curve]
33 | CCCCCOc1ccc(C(=O)N(Cc2ccccc2)C2CCS(=O)(=O)C2)cc1 (stereo not drawn) | inactive: -10.5% | –
34 | CCC(=O)NC(=S)NNC(=O)c1ccc(NC(=O)c2ccccc2)cc1 | – | inconclusive: 25.1 µM [inhibitor, partial curve]
35 | Cc1c(C(=O)NC(=S)Nc2ccc(NC(=O)c3cccs3)cc2)oc2ccccc12 | – | inconclusive: 17.8 µM [inhibitor, partial curve]
36 | CCOC(=O)c1c(C)[nH]c(C(=O)CSc2nnc(C3CC3)n2N)c1C | – | inconclusive: 39.8 µM [inhibitor, partial curve]
37 | COc1ccc(-c2nnc(SC(=O)N3c4ccccc4Sc4ccccc43)o2)cc1 | – | inconclusive: 14.1 µM [inhibitor, partial curve]
38 | COc1ccccc1CNc1ncnc2ccc(-c3ccc(N(C)C)cc3)cc12 | – | active: 11.2 µM
39 | CCOC(=O)Cc1[nH]nc2c1C(C1C=CCCC1)C(C#N)=C(N)O2 (stereo not drawn) | – | inconclusive: 0.0251 µM [inhibitor, full curve, poor fit]
40 | COc1ccc(N2C(=O)/C(=C/c3cccs3)NC2=S)cc1 | – | active: 22.4 µM
41 | CC(C)CN(CC(C)C)C(=O)Cc1coc2ccc3ccccc3c12 | – | inconclusive: 20 µM [inhibitor, partial curve, poor fit]
42 | Nc1cnccc1C(=O)O | – | inconclusive: 31.6 µM [inhibitor, single point]
43 | CCC(C)NC(=O)CCS(=O)(=O)c1ccc(Br)s1 (stereo not drawn) | – | inconclusive: 31.6 µM [inhibitor, partial curve, poor fit]
